Assay results reported in PubChem BioAssay (NCI).
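Each compound was tested at five concentrations against cells in 96-well plates for 48 hours. TGI marks complete inhibition of growth.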

How the values were obtained:
Experiment in all cases: NCI-60 cell line screen, 48 h
NCI/ADR-RES ovarian = test system: NCI/ADR-RES ovarian
RPMI-8226 leukemia = test system: RPMI-8226 leukemia
HCC-2998 colon = test system: HCC-2998 colon
HCT-15 colon = test system: HCT-15 colon
MCF7 breast = test system: MCF7 breast
EKVX NSCLC = test system: EKVX NSCLC
UO-31 renal = test system: UO-31 renal
KM12 colon = test system: KM12 colon
DMS 273 small cell lung = test system: DMS 273 small cell lung
OVCAR-5 ovarian = test system: OVCAR-5 ovarian
UACC-62 melanoma = test system: UACC-62 melanoma
U251 CNS = test system: U251 CNS
HS 578T breast = test system: HS 578T breast
SK-OV-3 ovarian = test system: SK-OV-3 ovarian
NCI-H460 lung = test system: NCI-H460 lung
MDA-MB-231 breast = test system: MDA-MB-231 breast
NCI-H522 lung = test system: NCI-H522 lung
SK-MEL-5 melanoma = test system: SK-MEL-5 melanoma
CCRF-CEM leukemia = test system: CCRF-CEM leukemia
MOLT-4 leukemia = test system: MOLT-4 leukemia
M14 melanoma = test system: M14 melanoma
CAKI-1 renal = test system: CAKI-1 renal
SF-268 CNS = test system: SF-268 CNS
OVCAR-8 ovarian = test system: OVCAR-8 ovarian
A498 renal = test system: A498 renal
HL-60(TB) leukemia = test system: HL-60(TB) leukemia
SK-MEL-28 melanoma = test system: SK-MEL-28 melanoma
SNB-19 CNS = test system: SNB-19 CNS
XF 498 CNS = test system: XF 498 CNS
MDA-N = test system: MDA-N
SK-MEL-2 melanoma = test system: SK-MEL-2 melanoma
TK-10 renal = test system: TK-10 renal
HOP-92 NSCLC = test system: HOP-92 NSCLC
IGROV1 ovarian = test system: IGROV1 ovarian
COLO 205 colon = test system: COLO 205 colon
SNB-75 CNS = test system: SNB-75 CNS
HOP-18 NSCLC = test system: HOP-18 NSCLC
DMS 114 small cell lung = test system: DMS 114 small cell lung
SF-295 CNS = test system: SF-295 CNS
MALME-3M melanoma = test system: MALME-3M melanoma
SN12C renal = test system: SN12C renal
MDA-MB-435 = test system: MDA-MB-435
OVCAR-3 ovarian = test system: OVCAR-3 ovarian
SR leukemia = test system: SR leukemia
LXFL 529 NSCLC = test system: LXFL 529 NSCLC
HCT-116 colon = test system: HCT-116 colon
DU-145 prostate = test system: DU-145 prostate
HOP-62 NSCLC = test system: HOP-62 NSCLC
SF-539 CNS = test system: SF-539 CNS
BT-549 breast = test system: BT-549 breast
NCI-H23 lung = test system: NCI-H23 lung
DLD-1 colon = test system: DLD-1 colon
PC-3 prostate = test system: PC-3 prostate
786-0 renal = test system: 786-0 renal
OVCAR-4 ovarian = test system: OVCAR-4 ovarian
HT29 colon = test system: HT29 colon
NCI-H226 lung = test system: NCI-H226 lung
M19-MEL melanoma = test system: M19-MEL melanoma
ACHN renal = test system: ACHN renal
UACC-257 melanoma = test system: UACC-257 melanoma
LOX IMVI melanoma = test system: LOX IMVI melanoma
K-562 leukemia = test system: K-562 leukemia
SNB-78 CNS = test system: SNB-78 CNS
T-47D breast = test system: T-47D breast
SW-620 colon = test system: SW-620 colon
RXF 393 renal = test system: RXF 393 renal
A549 NSCLC = test system: A549 NSCLC

`CCOC(=O)NC1CCc2cc(OC)c(OC)c(OC)c2-c2ccc(OC)c(=O)cc21` (configuration not stated) was tested, and the TGI (NCI/ADR-RES ovarian) was 1.57 µM, the TGI (RPMI-8226 leukemia) was 57 µM and the TGI (HCC-2998 colon) was 21.5 µM. The TGI (HCT-15 colon) was 20.3 µM, the TGI (MCF7 breast) was 90.8 µM and the TGI (EKVX NSCLC) was greater than 100 µM. It also gave a TGI (UO-31 renal) greater than 100 µM, a TGI (KM12 colon) of 0.151 µM and a TGI (DMS 273 small cell lung) greater than 100 µM. The TGI (OVCAR-5 ovarian) was greater than 100 µM, the TGI (UACC-62 melanoma) was 78.4 µM and the TGI (U251 CNS) was 3.69 µM. The TGI (HS 578T breast) was 4.64 µM, the TGI (SK-OV-3 ovarian) was 5.51 µM and the TGI (NCI-H460 lung) was 17.5 µM. It also gave a TGI (MDA-MB-231 breast) of 27.5 µM, a TGI (NCI-H522 lung) of 0.0329 µM and a TGI (SK-MEL-5 melanoma) of 0.209 µM. For the same molecule, the TGI (CCRF-CEM leukemia) was 88.1 µM, the TGI (MOLT-4 leukemia) was 87.3 µM and the TGI (M14 melanoma) was 17.5 µM. The TGI (CAKI-1 renal) was 96.5 µM, the TGI (SF-268 CNS) was greater than 100 µM and the TGI (OVCAR-8 ovarian) was 31.6 µM. For the same molecule, the TGI (A498 renal) was 20.6 µM, the TGI (HL-60(TB) leukemia) was 0.0296 µM and the TGI (SK-MEL-28 melanoma) was greater than 100 µM. For the same molecule, the TGI (SNB-19 CNS) was 10.4 µM, the TGI (XF 498 CNS) was greater than 100 µM and the TGI (MDA-N) was 0.0426 µM. The TGI (SK-MEL-2 melanoma) was 2.19 µM, the TGI (TK-10 renal) was 90.3 µM and the TGI (HOP-92 NSCLC) was 7.82 µM. For the same molecule, the TGI (IGROV1 ovarian) was greater than 100 µM, the TGI (COLO 205 colon) was 0.0268 µM and the TGI (SNB-75 CNS) was 15.8 µM. The TGI (HOP-18 NSCLC) was greater than 100 µM, the TGI (DMS 114 small cell lung) was 0.0156 µM and the TGI (SF-295 CNS) was 0.0501 µM. It also gave a TGI (MALME-3M melanoma) of 93.2 µM, a TGI (SN12C renal) of 95.5 µM and a TGI (MDA-MB-435) of 0.0294 µM. The TGI (OVCAR-3 ovarian) was 0.0911 µM, the TGI (SR leukemia) was 33 µM and the TGI (LXFL 529 NSCLC) was greater than 100 µM. For the same molecule, the TGI (HCT-116 colon) was 0.555 µM, the TGI (DU-145 prostate) was 0.755 µM and the TGI (HOP-62 NSCLC) was 85.8 µM. For the same molecule, the TGI (SF-539 CNS) was 0.0312 µM, the TGI (BT-549 breast) was 1.97 µM and the TGI (NCI-H23 lung) was 1.04 µM. For the same molecule, the TGI (DLD-1 colon) was greater than 100 µM, the TGI (PC-3 prostate) was greater than 100 µM and the TGI (786-0 renal) was greater than 100 µM. It also gave a TGI (OVCAR-4 ovarian) greater than 100 µM, a TGI (HT29 colon) of 0.15 µM and a TGI (NCI-H226 lung) of 1.13 µM. It also gave a TGI (M19-MEL melanoma) greater than 100 µM, a TGI (ACHN renal) greater than 100 µM and a TGI (UACC-257 melanoma) greater than 100 µM. It also gave a TGI (LOX IMVI melanoma) greater than 100 µM, a TGI (K-562 leukemia) of 90.6 µM and a TGI (SNB-78 CNS) greater than 100 µM. For the same molecule, the TGI (T-47D breast) was greater than 100 µM, the TGI (SW-620 colon) was greater than 100 µM and the TGI (RXF 393 renal) was 19.1 µM. It also gave a TGI (A549 NSCLC) greater than 100 µM.
